Drawing on PubChem BioAssay AID463173 (ICCB-Longwood Screening Facility, Harvard Medical School, 2010), this text covers survival for 58 compounds.

Each structure is given as a SMILES string. Out of some 52,000 compounds screened, about 4,300 (8.3%) were called active. Rule as the data show it: active = survival mostly below about 52% (no sharp cut-off); inactive = mostly above about 56%. The list shows a part of the results.

For the assay, the system named is DeltatarO mutant. In words: S. aureus survival, RN4220 and DeltatarO strains – OD600, teichoic acid synthesis inhibitors, primary screen (AID 463173). Particulars: S. aureus RN4220 wild type/DeltatarO growth, OD600, 18 h, hits give low values, screened at 18.75 µg/mL (by protocol).
In the case of `Cc1ccc(-n2nc(C)c3c(C(=O)O)cc(C)nc32)cc1`, the survival is inactive: 56%. `Oc1ccccc1C1NN=C(c2ccccc2)S1` (stereo not drawn): the survival was inactive: 77%. The value for `S=c1[nH]c2ccccc2n1C1CCCCC1` was inactive: 94%; that for `CCOC(=O)CSc1nnc2n(-c3ccccc3)c(=O)c3c4c(sc3n12)COC(C(C)C)C4` (stereo not drawn) was inactive: 74%.

Take `CS(=O)(=O)c1ccc(-c2nnn(CC(=O)NC3CCCC3)n2)cc1`: the survival was inactive: 74%. The value for `CCCCN(CC)CCNC(=O)C1CCN(c2nnc(C)c3c(C)n(-c4ccc(C)cc4)nc23)CC1` was inactive: 67%. Consider `Cc1noc2ncnc(N3CCN(c4ccccc4F)CC3)c12`, for which the survival is inactive: 84%. In the case of `Cc1cccc(CSc2nc3cccnc3n2Cc2ccc(C(=O)NCc3ccco3)cc2)c1`, the survival was inactive: 73%. As for `COc1ccc(CN(Cc2ccco2)c2cnc(S(C)(=O)=O)nc2C(=O)Nc2ccc(C)c(C)c2)cc1`, the figure is active: 44%; as for `COC(=O)c1ccc(C(=O)Nc2ccc(-c3nc4cc(NC(=O)c5ccc(C(=O)OC)cc5)ccc4o3)cc2)cc1`, inactive: 60%; as for `CCSc1ncc(Cl)c(C(=O)Nc2ccc(S(=O)(=O)Nc3nccc(C)n3)cc2)n1`, inactive: 95%. Consider `Cc1ccc(Cl)cc1NC(=O)Cn1cc2c(n1)CCCCC2`, for which the survival was inactive: 68%. As for `Cc1cccc(C)c1OCCn1c(C2CC(=O)N(Cc3ccc(F)cc3)C2)nc2ccccc21` (stereo not drawn), the figure is active: 4%; as for `CC(CNC(=O)c1ccc2c(c1)nc1n2CCOC1)c1ccccc1` (stereo not drawn), inactive: 72%; as for `CC(C)NC(=O)CSc1nc2ccccc2c(=O)n1Cc1ccc(C(=O)NC(C)C)cc1`, inactive: 105%. As for `O=C(CCS(=O)(=O)c1cccc2nonc12)Nc1cccc(F)c1`, the figure is inactive: 67%; as for `O=S1(=O)C=C(Sc2nnnn2-c2ccccc2)c2ccccc21`, active: 4%. As for `CN(C)C(=O)COc1ccc(S(=O)(=O)c2ccc(OCC(=O)N(C)C)cc2)cc1`, the figure is inactive: 109%. As to `O=C(CSc1nc(=O)[nH]c2c1CCC2)NCc1ccc(Cl)cc1`, the survival was inactive: 67%.

For the compound `COc1ccc(N2CCN(C(=O)c3cc(NS(=O)(=O)c4ccc(F)cc4)ccn3)CC2)cc1`, the survival was inactive: 66%. The value for `CCOc1ccc(CCNC(=O)CCN2N=C(c3ccc(OC)cc3)CCC2=O)cc1OCC` was inactive: 81%; that for `CCCSCCCNC(=O)c1cc2n(n1)CCCN(Cc1ccc(C)cc1)C2=O` was inactive: 89%. `Cc1ccc(C)c(N2CCN(C(=O)CCn3c(=O)[nH]c4ccccc4c3=O)CC2)c1`: the survival is inactive: 97%. As for `Cc1ccc(C)c(NC(=O)CSc2ncc3c(n2)-c2cc(Cl)ccc2N(Cc2ccccc2F)S3(=O)=O)c1`, the figure is inactive: 79%; as for `CC1(C)CC(=O)c2cc(-c3nc(-c4ccc(Cl)cc4)cs3)c(=O)n(-c3ccc(F)cc3)c2C1`, inactive: 62%; as for `Cc1cc(Cl)ccc1NC(=O)CCn1nc(C)c2c(C)n(-c3ccccc3)nc2c1=O`, inactive: 72%. The value for `Cc1nc(SCC(=O)OCN2C(=O)c3ccccc3C2=O)n[nH]1` was inactive: 80%; that for `Cc1cccc(OCCSc2nc3ccc(NC(=O)COc4ccccc4F)cc3s2)c1` was inactive: 58%.

Turning to `COc1ccc(-c2oc3ncn4nc(-c5ccccc5Cl)nc4c3c2-c2ccc(OC)cc2)cc1`, the survival is inactive: 73%. `O=C(CCC1N=C2c3ccccc3N=C(SCc3ccccc3Cl)N2C1=O)N1CCN(c2ccccc2)CC1` (stereo not drawn): the survival was active: 49%. As for `COC(=O)CC1Oc2ccc(C)cc2-n2cc(-c3ccc(F)cc3)nc21` (stereo not drawn), the figure is active: 56%. As for `Cc1ccc2cc3c(N)[nH]nc3nc2c1`, the figure is inactive: 65%. As to `Cc1cc(Cl)ccc1OCC(=O)N1CCC(c2nc3ccccc3o2)CC1`, the survival is inactive: 54%. The value for `CCn1c(=O)/c(=C2/Sc3ccc(Cl)cc3N2C)s/c1=C1/C(=O)N(C)N=C1C` was inactive: 94%. As for `Cc1ccc(CN(Cc2cccn2-c2nnc(N3CCCC3=O)s2)C(=O)Nc2ccc(F)cc2)cc1`, the figure is inactive: 111%. As for `O=C(COc1ccc(F)cc1)Nc1ccc(C(=O)OCc2cc(=O)n3nc(C4CC4)sc3n2)cc1`, the survival is inactive: 86%.

As to `CCOc1ccc(NC(=O)N2CCC(c3ccc(C)cc3)C2)cc1` (stereo not drawn), the survival was inactive: 66%. As for `Cc1ccc(-n2nc(C(=O)Nc3ccc(Br)cc3C)c(=O)n(C)c2=O)cc1`, the figure is inactive: 99%. As for `CCOc1ccc(NC(=O)c2sc3nc4c(cc3c2N)CN(Cc2ccccc2)CC4)cc1`, the figure is inactive: 73%. As for `COC(=O)c1ccc(NC(=O)C(=O)NCCc2csc(-c3ccc(C(F)(F)F)cc3)n2)cc1`, the figure is inactive: 75%; as for `COc1ccccc1CNC(=O)CSCc1nc(-c2ccc(OC)c(OC)c2)oc1C`, inactive: 71%. As for `O=C1CSC(=S)N1C1CCS(=O)(=O)C1` (stereo not drawn), the survival was inactive: 97%.

Turning to `COc1ccc(NC(=O)CN2CCN(CC(=O)Nc3ccccc3F)CC2)cc1OC`, the survival was inactive: 84%. As to `O=C(N=Nc1c(O)[nH]c2ccccc12)C1CC1c1ccccc1` (stereo not drawn), the survival was active: 35%. The value for `O=S(=O)(c1ccc(F)cc1)N(Cc1nc(-c2ccccc2)no1)C1CCCCC1` was active: 45%; that for `CCOC(=O)c1ccc(NC(=O)COc2cccc3c(=O)n(C)ccc23)cc1` was inactive: 81%; that for `CCOc1ccc(N2C(=O)CC(N3CCCCC3CC)C2=O)cc1` (stereo not drawn) was active: 53%. `CCc1nn(CC(=O)N2CCN(c3cccc(Cl)c3)CC2)c(=O)c2cc3sccc3n12`: the survival is inactive: 129%. As for `Cc1ccccc1Cn1nc(C)c(NC(=O)c2cc(CC(C)C)on2)c1C`, the figure is inactive: 56%; as for `COc1cc(OC)c(NC(=O)Cn2c(SCc3ccccc3F)nc3cccnc32)cc1Cl`, inactive: 69%. As for `O=C1CC(c2cccc(Cl)c2Cl)c2cc3c(cc2N1)OCCO3` (stereo not drawn), the figure is inactive: 64%. The value for `CC(=O)c1ccc(N2CCN(c3nc4ccccc4c4nc(-c5cccc(C)c5)nn34)CC2)cc1` was active: 41%; that for `CCOc1ccc(NC(=O)Cn2nc(SC)c(S(=O)(=O)c3ccccc3)c2N)cc1` was inactive: 70%.

Consider `COc1ccc(OC)c(NC(=O)CCn2cccn2)c1`, for which the survival is active: 47%. Take `Cc1ccc(Cn2ccnc2SCC(=O)Nc2ccccc2C(F)(F)F)cc1`: the survival is inactive: 78%.

Take `CCC(=O)OC1CSc2nc3ccccc3n2C1` (stereo not drawn): the survival is inactive: 76%.

In the case of `CCOC(=O)c1ccccc1NC(=O)NCc1cccn1Cc1ccc(F)cc1`, the survival was inactive: 82%. As for `COc1ccc(NC(=O)CSc2nc(-c3ccccc3)[nH]c2-c2ccccc2)cc1OC`, the survival was inactive: 49%.
